# Experimental data reported in the supplement of paper PMC10600219.
# Counter-ions that a name gives are not always drawn. The full ranking holds about 2,800 compounds; the median of “cell viability relative to vehicle” is about 1.1, and the lowest 2% start at about 0.19. This is one part of the list.
# Tested on: NCI-H2228 parental
# Experiment: cell viability relative to vehicle (fraction of vehicle); NCI-H2228 is an ALK-positive lung cancer line and DTP means drug-tolerant persister; higher = less growth inhibition
# Settings: 100 nM; treatment time 6 days
# Summary of the method: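 NCI-H2228 parental cells and drug-tolerant persister cells were plated in 384-well plates; the persisters had been generated with 1000 nM of a targeted drug over 13 days. One day later, the 3114-agent TargetMol anti-cancer compound library was added at 100 nM, with DMSO serving as vehicle. ATP was measured 6 days after that using the CellTiter-Glo 3D Cell Viability Assay. Values are cell viability expressed relative to vehicle-treated cells.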
row,Structure (SMILES),cell viability
1,O=C1NC(=O)/C(=C/c2ccc3c(c2)OC(F)(F)O3)S1,1.13
2,COc1ccc(-c2coc3cc(O)ccc3c2=O)cc1O [Calycosin],1.04
3,COc1cc([C@@H]2c3cc4c(cc3[C@@H](O[C@@H]3O[C@@H]5CO[C@@H](c6cccs6)O[C@H]5[C@H](O)[C@H]3O)[C@H]3COC(=O)[C@H]23)OCO4)cc(OC)c1O [Teniposide],0.24
4,NC(=O)c1ccc[n+]([O-])c1 [Nicotinamide-N-oxide],1.16
5,O=C(C[S+]([O-])Cc1ccco1)NC/C=C\COc1cc(CN2CCCCC2)ccn1 (stereo not drawn) [Lafutidine],1.14
6,O=C(c1ccccc1)c1ccc2n1CCC2C(=O)O (stereo not drawn) [Ketorolac tromethamine salt],1.01
7,COc1c(N2CCNC(C)C2)c(F)cc2c(=O)c(C(=O)O)cn(C3CC3)c12 (stereo not drawn) [Gatifloxacin],1.06
8,Cc1ccccc1C(C(=O)NC1CCCCC1)N(C(=O)Cn1cnc2ccccc21)c1cccc(F)c1 (stereo not drawn),1.19
9,O=C(Nc1ccccc1Br)N[C@@H]1CCN(c2ccc(C(F)(F)F)cn2)C1,1.06
10,CC(C)c1c(-c2ccccc2)nc2c(C#N)c[nH]n2c1=O,1.1
11,Cc1ccc2nc(N)[nH]c(=O)c2c1Sc1ccncc1 [Nolatrexed],1.04
12,O=C(O)COc1ccc(Br)cc1/C=C1\SC(=S)N(Cc2cccnc2)C1=O [Skp2 Inhibitor C1],0.978
13,O=C(NOCC(O)CO)c1cc(Br)c(F)c(F)c1Nc1ccc(I)cc1F (stereo not drawn),0.843
14,CN(C)CC(c1ccc(O)cc1)C1(O)CCCCC1 (stereo not drawn) [Desvenlafaxine],1.02
15,C=C(C)[C@@H]1CC=C(CO)CC1 [Perillyl alcohol],1.08
16,CN(C)C/C=C/C(=O)Nc1cc2c(Nc3ccc(F)c(Cl)c3)ncnc2cc1O[C@H]1CCOC1 [Afatinib],1.1
17,CN(C)C/C=C/C(=O)Nc1cc2c(Nc3ccc(F)c(Cl)c3)ncnc2cc1O[C@H]1CCOC1 [Afatinib Dimaleate],1.02
18,O=C1NC(=O)C(=Cc2ccc(-c3ccc(F)cc3)o2)S1 (stereo in doubt),1.1
19,O=C1NCCCc2c1oc1ccc(O)cc21,0.957

row,Structure (SMILES),cell viability
1,COc1cc(N2CCC(N3CCN(C)CC3)CC2)ccc1Nc1ncc(Cl)c(Nc2ccccc2P(C)(C)=O)n1 [Brigatinib],0.426
2,COc1ccccc1OCC(O)COC(N)=O (stereo not drawn) [Methocarbamol],1.32
3,Cc1cc(N)c2ccccc2[n+]1CCCCCCCCCC[n+]1c(C)cc(N)c2ccccc21 [Dequalinium chloride],0.804
4,CCc1c(Cl)c(O)c(Cl)c(O)c1C(=O)O[C@H]1[C@H](O)[C@H](OC)[C@H](OC/C2=C\C=C\C[C@H](O)/C(C)=C/[C@H](CC)[C@@H](O[C@@H]3OC(C)(C)[C@@H](OC(=O)C(C)C)[C@H](O)[C@@H]3O)/C(C)=C/C(C)=C/C[C@@H]([C@@H](C)O)OC2=O)O[C@@H]1C [Fidaxomicin],1.1
5,Nc1ccn([C@@H]2CS[C@H](CO)O2)c(=O)n1 [Lamivudine],1.21
6,COC(=O)Nc1nc2cc([S+]([O-])c3ccccc3)ccc2[nH]1 (stereo not drawn) [Oxfendazole],1.18
7,N#Cc1c(NC(=O)c2cccc3ccccc23)sc2c1CCCC2,0.393
8,C=CC(=O)Nc1cccc(Nc2nc(Nc3ccc(OCCOC)cc3)ncc2F)c1 [Spebrutinib],0.822
9,CCC(=O)Nc1cccc(Oc2nc(Nc3ccc(N4CCN(C)CC4)cc3OC)ncc2Cl)c1,1.22
10,CC(C)C(C)C(O)C(O)C(C)C1CCC2C3COC(=O)C4CC(O)C(O)CC4(C)C3CCC12C (stereo not drawn) [Brassinolide],1.08
11,CCC(=O)O[C@]1(C(=O)CO)CC[C@H]2[C@@H]3CCC4=CC(=O)CC[C@]4(C)[C@H]3CC[C@@]21C [17 alpha-propionate],1.15
12,O=c1ccccn1CC1(O)CCN(Cc2ccccc2)CC1,1.05
13,O=C(/C=C/c1ccc(O)c(O)c1)O[C@@H]1C[C@](O)(C(=O)O)C[C@@H](O)[C@H]1O [Chlorogenic Acid],1.14
14,CCOc1cc2c(c(F)c1OCC)C(=N)N(CC(=O)c1cc(N3CCOCC3)c(OC)c(C(C)(C)C)c1)C2 [Atopaxar Hydrobromide],1.18
15,Fc1ccc(-c2c3cccc(C(F)(F)F)c3nn2Cc2ccc(F)cc2Cl)cc1,1.04
16,CCC(=O)N1CC[C@H](Nc2ncnc3c2CN(c2cnc(OC)c(C(F)(F)F)c2)CC3)C1 [Leniolisib],0.947
17,Oc1cccc(-c2nc(N3CCOCC3)c3oc4ncccc4c3n2)c1,0.866
18,Cn1cc(-c2ccc3c(c2)CCN3C(=O)Cc2cccc(C(F)(F)F)c2)c2c(N)ncnc21,1.04
19,Cc1cc(C(=O)Nc2cccc(C(=O)Nc3cccc(C(F)(F)F)c3)c2)on1,1.13
